# Among all 220,000 compounds or so, about 5,700 (2.6%) were called active. Inconclusive means that the source gave no clear call. Such entries were picked first, then a sample of the others. The call rests on the fitted dose curve; in most records, active means well fitted inhibition curve with a large enough effect; inconclusive means small, poorly fitted or top-dose-only effect; inactive means no such curve, though single readings can be large or run the other way. A potency beside an inconclusive call is a rough fit, not a confirmed value.
# Target: Lysine-specific demethylase 5B (Homo sapiens) (UniProt Q9UGL1)
# Assay: Primary screen for KDM5B Histone Demethylases FDH-coupled qHTS; further: nearly all actives have a fitted effect of over 70% in size
# Details: FDH-coupled NADH fluorescence (FDH is formaldehyde dehydrogenase); series mostly up to 57.7 µM
# Procedure, shortened: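 qHTS format, multiple compound concentrations. Buffer 50 mM HEPES pH 7.5/0.01% Tween-20; 200 nM KDM5BΔAP final; 10 min compound preincubation; substrate-mix levels 12.5 µM peptide, 25 µM α-KG, 0.25 mM NAD⁺; 30 min RT; ΔRFU.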
# Potency means the concentration at half of the fitted maximal effect; tags describe the fitted curve by direction and shape.
# UniProt Q9UGL1, sequence (Q9UGL1 whole entry, looked up): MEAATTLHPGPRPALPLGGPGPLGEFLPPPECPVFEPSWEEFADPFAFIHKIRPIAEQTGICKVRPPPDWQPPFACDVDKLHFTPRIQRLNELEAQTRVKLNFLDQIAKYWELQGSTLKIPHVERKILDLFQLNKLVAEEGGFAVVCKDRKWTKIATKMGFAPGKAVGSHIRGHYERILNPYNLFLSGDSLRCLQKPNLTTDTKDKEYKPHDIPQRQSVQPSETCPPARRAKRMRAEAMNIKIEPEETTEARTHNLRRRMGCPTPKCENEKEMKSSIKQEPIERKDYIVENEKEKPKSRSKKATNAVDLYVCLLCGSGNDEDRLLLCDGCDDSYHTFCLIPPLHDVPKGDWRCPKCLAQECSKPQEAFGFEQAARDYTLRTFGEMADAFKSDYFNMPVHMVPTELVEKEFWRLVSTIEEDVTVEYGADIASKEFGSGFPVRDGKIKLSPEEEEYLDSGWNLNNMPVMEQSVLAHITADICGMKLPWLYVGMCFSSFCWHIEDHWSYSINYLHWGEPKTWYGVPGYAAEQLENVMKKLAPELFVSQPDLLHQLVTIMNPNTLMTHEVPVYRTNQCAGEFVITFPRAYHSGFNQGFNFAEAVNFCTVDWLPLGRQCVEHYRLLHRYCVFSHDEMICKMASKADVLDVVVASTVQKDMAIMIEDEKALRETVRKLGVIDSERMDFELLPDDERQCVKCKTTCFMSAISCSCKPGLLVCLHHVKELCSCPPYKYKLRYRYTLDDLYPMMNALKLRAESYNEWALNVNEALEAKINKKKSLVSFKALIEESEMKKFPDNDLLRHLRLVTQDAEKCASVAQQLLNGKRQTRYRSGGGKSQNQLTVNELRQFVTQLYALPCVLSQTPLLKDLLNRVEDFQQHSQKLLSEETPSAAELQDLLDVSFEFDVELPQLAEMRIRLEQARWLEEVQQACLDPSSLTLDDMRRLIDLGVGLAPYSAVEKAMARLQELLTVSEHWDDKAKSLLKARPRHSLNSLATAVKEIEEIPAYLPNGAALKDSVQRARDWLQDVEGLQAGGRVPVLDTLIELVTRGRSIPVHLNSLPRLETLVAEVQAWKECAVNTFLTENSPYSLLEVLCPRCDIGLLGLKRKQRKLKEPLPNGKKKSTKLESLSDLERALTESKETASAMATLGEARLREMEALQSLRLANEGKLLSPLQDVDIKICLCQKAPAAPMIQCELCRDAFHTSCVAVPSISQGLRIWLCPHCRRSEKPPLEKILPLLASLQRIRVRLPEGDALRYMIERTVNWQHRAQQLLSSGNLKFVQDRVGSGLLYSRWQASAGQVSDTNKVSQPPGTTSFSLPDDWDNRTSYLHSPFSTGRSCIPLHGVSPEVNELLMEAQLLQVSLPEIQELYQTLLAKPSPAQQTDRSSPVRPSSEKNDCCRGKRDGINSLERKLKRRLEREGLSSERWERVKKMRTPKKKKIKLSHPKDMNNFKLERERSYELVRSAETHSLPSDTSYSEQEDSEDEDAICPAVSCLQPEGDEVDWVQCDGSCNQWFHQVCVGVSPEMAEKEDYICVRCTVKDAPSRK
row,Structure (SMILES),Potency
1,COc1cc(C2=NOC(C(=O)Nc3cc(C)nn3-c3ccccc3)C2)cc(OC)c1OC (centres undefined),inactive
2,Cc1ccc(/C=C/c2onc(C)c2S(=O)(=O)N2CCC(C(=O)N3CCC(N(C)C(C)C)CC3)CC2)cc1,"inconclusive: 28.2 µM [inhibitor, partial curve, poor fit]"
3,CC(=O)Nc1ccc(CN2CCC[C@H]2c2nc(-c3ccnc(NS(C)(=O)=O)c3)no2)cc1,"inconclusive: 28.2 µM [inhibitor, partial curve]"
4,O=C(c1ccccc1)N1CCN2C(=O)N(Cc3ccccn3)C[C@H]2C1,inactive
5,CCOC(=O)C1CCN(C(=O)c2cc3cc(OC)ccc3[nH]2)CC1,"inconclusive: 31.6 µM [inhibitor, partial curve, poor fit]"
6,CCc1ccc(C(=O)c2ccccc2C(=O)O)cc1,inactive
7,CC1=C(C(=O)N(C)C)C(c2ccc(Cl)cc2)N2C(CC(=O)NC(C)c3ccccc3)=CSC2=N1 (centres undefined),"inconclusive: 20 µM [inhibitor, single point]"
8,Nc1nccnc1C(=O)NCc1ccnc(Oc2ccccc2)c1,"inconclusive: 25.1 µM [inhibitor, partial curve, poor fit]"
9,Cc1ccc(CN2CCSc3ccc(C(=O)N4CCN(c5ccccc5)CC4)cc32)cc1,"inconclusive: 1.78 µM [inhibitor, full curve, poor fit]"
10,COc1ccc(OC)c(CN2CCC3OCCN(Cc4ccccc4)C(=O)C3C2)c1 (centres undefined),inactive
11,O=C(NCc1ccc2c(c1)OCO2)c1nc(-c2ccc(F)cc2)c2cnccn12,"inconclusive: 3.98 µM [inhibitor, partial curve, poor fit]"
12,Cc1ccc(Cn2c(SCCC(=O)O)nc3c2c(=O)n(C)c(=O)n3C)cc1,inactive
13,Cc1nn(-c2ccccc2)c(Oc2ccccc2F)c1CCC(=O)NCc1ccco1,"inconclusive: 31.6 µM [inhibitor, partial curve, poor fit]"
14,O=C(c1cc(-c2ccc(F)cc2)n[nH]1)N1CCN(c2ncccn2)CC1,inactive
15,CN(C)c1nc2c(c(=O)[nH]c(=O)n2C)n1Cc1ccccc1Cl,inactive
16,Cc1ccc(CN(C)C(=O)CCc2ccc(C#N)cc2)o1,inactive
17,c1ccc(Oc2cc3c(cn2)NCCN(Cc2ccc4[nH]ccc4c2)C3)cc1,"inconclusive: 39.8 µM [inhibitor, partial curve, poor fit]"
18,Cc1ccc(CNCCC2=CCCCC2)o1,"inconclusive: 39.8 µM [inhibitor, single point]"
19,Cc1c(C)c2ccc(OCc3nn[nH]n3)cc2oc1=O,"inconclusive: 31.6 µM [inhibitor, partial curve, poor fit]"

# Source: PubChem BioAssay AID1347165 (National Center for Advancing Translational Sciences (NCATS), 2019)
